{"source": "patent US9353185B2", "about": "“Antibodies” (Affitech Research AS, priority 2010, dated 2016)", "key": {"[1]": {"molecular_target": "T1, mouse CXCR4 (Mus musculus, UniProt P70658)", "T1 construct": "expressed in transfected cells; host or cells: HEK-293 (HEK293T/17), transient transfection with Fugene", "T1 sequence (P70658 whole entry)": "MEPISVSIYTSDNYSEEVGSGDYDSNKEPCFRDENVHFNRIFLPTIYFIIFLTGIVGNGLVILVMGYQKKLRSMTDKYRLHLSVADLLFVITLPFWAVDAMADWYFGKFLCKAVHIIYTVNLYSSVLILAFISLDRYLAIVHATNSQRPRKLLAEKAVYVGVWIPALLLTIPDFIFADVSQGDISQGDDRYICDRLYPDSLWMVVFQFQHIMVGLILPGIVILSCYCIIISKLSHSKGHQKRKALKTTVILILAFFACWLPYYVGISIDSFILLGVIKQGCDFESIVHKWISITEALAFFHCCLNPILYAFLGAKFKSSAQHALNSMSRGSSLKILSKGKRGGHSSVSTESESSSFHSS", "test": "Species cross reactivity: binding to HEK-293 cells transiently expressing mouse CXCR4", "conditions": "scFv level; transiently transfected HEK-293 cells", "method": "The antibody candidates were tested on scFv level for their ability to cross-react with CXCR4 from monkey and mouse.\nHEK293T/17 cells were maintained as described above.\nFACS-binding analyses (EasyCyte) were performed using HEK-293 cells transiently transfected with plasmids encoding either, mouse (Gene bank accession number BC031665) or monkey (Macaca mulatta) CXCR4 (NCBI Accession number NP_001036110). Two experiments were performed, one using α-cMyc and PE-labelled goat anti-mouse IgG antibody, the second using a directly conjugated RPE-c-Myc antibody for detection. In addition, cross-reactivity on IgG level was analysed. In the latter case, antibody binding was detected with PE-conjugated goat anti-human IgG antibody."}, "[2]": {"molecular_target": "T2, CXCR4 (Homo sapiens, UniProt P61073)", "T2 construct": "CRL-1596 (Ramos); host or cells: Ramos, Jurkat 6E-1, CCRF-CEM", "T2 sequence (P61073 whole entry)": "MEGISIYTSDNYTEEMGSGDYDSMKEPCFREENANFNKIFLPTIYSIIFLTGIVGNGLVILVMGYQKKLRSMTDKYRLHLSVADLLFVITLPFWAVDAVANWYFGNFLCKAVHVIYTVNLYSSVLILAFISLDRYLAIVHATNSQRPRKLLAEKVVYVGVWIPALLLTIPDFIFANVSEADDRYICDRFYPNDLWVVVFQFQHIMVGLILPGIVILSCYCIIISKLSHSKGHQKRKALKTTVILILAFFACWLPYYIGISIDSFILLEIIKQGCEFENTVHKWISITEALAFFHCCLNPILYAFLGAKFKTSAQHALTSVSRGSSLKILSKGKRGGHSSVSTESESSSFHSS", "test": "Inhibition of SDF-1α ligand induced Ca++ flux in CCRF-CEM cells (Fluo-4)", "type": "cell-based", "conditions": "for inhibition of SDF-1α-induced signalling, IgG level: IgG 10 or 100 μg/ml (9N10: 1 or 10 μg/ml); for antagonistic activity on SDF-1α induced Ca++ flux, scFv level: scFv 4 μg/ml; for antagonistic effect on Ca++ signalling induced by SDF1α binding to CXCR4 (overall): scFv and/or IgG", "method": "9N10 was only tested on IgG level. The experiment was performed using the naturally CXCR4^+ positive cell line CCRF-CEM.\nThe CCRF-CEM target cells, were harvested by centrifugation and washed twice in RPMI-1640 culture medium. Either 1 ml with 2.5×10^6 cells (for IgGs) or 10 ml with 2.5×10^7 cells (for scFvs) were mixed with Fluo-4-AM (acetoxymethyl ester; Invitrogen), Pluronic F-127 (Invitrogen) and Probenecid to final concentrations of 1 μM, 0.02% and 1 mM respectively. The cells were incubated at 37° C. for 60 mM on a vertical rotating wheel (7 rpm). All subsequent steps were done in the presence of 1 mM Probenecid. The cells were washed twice in RPMI-1640 with 10% fetal calf serum (FCS), once in an assay buffer (145 mM NaCl, 4 mM KCl, 1 mM NaH2PO4, 0.8 mM MgCl2, 25 mM Hepes, 22 mM glucose) and then resuspended to a final density of 4×10^6 cells/ml. Equal volumes of cells, assay buffer with or without antibodies and ligand (SDF-1α) were mixed. The first two components (cells and antibodies) were pre-incubated for 15 min prior to adding the ligand, SDF-1α (final concentration 50 ng/ml). The final concentrations of antibodies were 10 μg/ml or 100 μg/ml for IgGs and 4 μg/ml for scFvs. The samples were immediately analyzed using the 515-545 nm band pass filter on a FACSCanto II (BD Biosciences). The areas under the curves (AUC) were integrated using software Prism (GraphPad) and plotted as percentage of AUC for maximal stimulation with SDF-1α alone.\nThe experiment was performed as described above, but the antibodies were used in a titration series with concentrations of 100, 20, 4, 0.8, 0.16, 0.032, 0.064 and 0.00128 μg/ml."}, "[3]": {"tested_on": "CXCR4+ Ramos cell line", "test": "Induction of apoptosis (Annexin V / PI staining)", "type": "cell-based, human", "conditions": "IgG1 0.08 to 10 μg/ml, 48 hrs, versus background level", "method": "The ability of anti-CXCR4 antibodies to induce apoptosis was assessed on the CXCR4^+ Ramos cell line.\nRamos cells were cultivated as described above.\nThe Ramos cells were harvested by centrifugation, washed twice in RPMI-1640 culture medium with 10% FCS and resuspended in RPMI-1640 medium with 10% FCS to a density of 3×10^5 cells/ml. The cell suspension (250 μl) was mixed with the same volume of either antibody to be tested in dilutions (final concentration of 0.08 to 10 μg/ml) or staurosporin (25 nM) in wells of a 24-well plate and incubated at 37° C. for 48 hrs. The cells were collected by centrifugation and washed in Annexin V Binding Buffer (10 mM Hepes, 140 mM NaCl, 2.5 mM CaCl2, 0.2% BSA, pH 7.4). The cells were harvested again and resuspended in 300 μl Annexin V Binding Buffer. Both FITC-conjugated Annexin V and propidium iodide (PI) were mixed with 240 μl cell suspension resulting in a final concentration of PI of 0.2 μg/ml. The samples were analyzed immediately after adding the ligand using the 515-545 nm and 610/20 nm band pass filters on a FACSCanto II flow cytometer (BD Biosciences). The apoptotic cells were defined as Annexin V positive/PI negative and the dead cells were defined as PI positive."}}, "note": "Entries after “also recorded” stand apart in the source; their conditions may differ."}
{"molecule": "C-9P21: human anti-CXCR4 antibody; scFv SEQ ID NO: 35; IgG1/kappa heavy chain SEQ ID NO: 108, light chain SEQ ID NO: 109 (antibody, antibody sequence) heavy: QVQLQESGGGLVHPGGSLRLSCAASGFTFSSYWMHWVRQAPGKGLVWVSRINSDGSSTSYADSVKGRFTISRDNAKNTLYLQMNSLRAEDTAVYYCARKILGVGARSRRYFDYWGQGTMVTVSS[human IgG1 constant region left out] light: ETTLTQSPGTLSLSPGERATLSCRASQSVVSNYLAWYQQKPGQAPRLLISGASNRATGISDRFSGSGSGADFTLTISRVEPEDSAVYYCQQFDKSTWTFGQGTKVEIKRTVAAPSVFIFPPSDEQLKSGTASVVCLLNNFYPREAKVQWKVDNALQSGNSQESVTEQDSKDSTYSLSSTLTLSKADYEKHKVYACEVTHQGLSSPVTKSFNRGEC", "values": [{"measurement": "cross-reactivity with mouse CXCR4", "setting": "[1]", "value": "intermediate"}, {"measurement": "inhibition of SDF-1α-induced signalling, IgG level", "setting": "[2]", "value": "inhibition of SDF-1α-induced signalling was demonstrated"}, {"measurement": "antagonistic activity on SDF-1α induced Ca++ flux, scFv level", "setting": "[2]", "value": "strong antagonistic activity"}, {"measurement": "antagonistic effect on Ca++ signalling induced by SDF1α binding to CXCR4 (overall)", "setting": "[2]", "value": "capable of inhibiting ligand induced signalling via CXCR4; also recorded: most prominent effect"}, {"measurement": "induction of apoptosis (Annexin V positive/PI negative cells)", "setting": "[3]", "value": "no apoptosis was induced above the background level"}]}
{"molecule": "D-1K21: human anti-CXCR4 antibody; scFv SEQ ID NO: 68; IgG1/kappa heavy chain SEQ ID NO: 120, light chain SEQ ID NO: 121 (antibody, antibody sequence) heavy: [about 100 residues left out]RNLIAARPRNRGRDAFDIWGQGTMVTVSS[human IgG1 constant region left out] light: DIQMTQSPSTLSASVGDRVTITCRASQSIGGSLAWYQQKPGKGPNLLIYAASTLQSGVPSRFSGSGSGTEFTLTISSLQPEDSATYYCQHYESYPLSFGGGTKLEIKRTVAAPSVFIFPPSDEQLKSGTASVVCLLNNFYPREAKVQWKVDNALQSGNSQESVTEQDSKDSTYSLSSTLTLSKADYEKHKVYACEVTHQGLSSPVTKSFNRGEC", "values": [{"measurement": "cross-reactivity with mouse CXCR4", "setting": "[1]", "value": "good cross-reactivity"}, {"measurement": "inhibition of SDF-1α-induced signalling, IgG level", "setting": "[2]", "value": "only marginally inhibitory at high concentration"}, {"measurement": "antagonistic activity on SDF-1α induced Ca++ flux, scFv level", "setting": "[2]", "value": "strong antagonistic activity"}, {"measurement": "antagonistic effect on Ca++ signalling induced by SDF1α binding to CXCR4 (overall)", "setting": "[2]", "value": "capable of inhibiting ligand induced signalling via CXCR4"}, {"measurement": "induction of apoptosis (Annexin V positive/PI negative cells)", "setting": "[3]", "value": "no apoptosis was induced above the background level"}]}
